The values that follow come from publication PMC4336329 (PLoS ONE, 2015).

The whole screen tested about 310,000 compounds, of which about 14,000 (4.5%) showed an effect of 50% or more. Effects have a minus sign here. This is one part of the list.
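Note: peak tail current of the secondary pulse compared with the same well before compound.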

human ether-à-go-go-related gene (hERG) potassium channel, sequence (Q12809 whole entry, looked up): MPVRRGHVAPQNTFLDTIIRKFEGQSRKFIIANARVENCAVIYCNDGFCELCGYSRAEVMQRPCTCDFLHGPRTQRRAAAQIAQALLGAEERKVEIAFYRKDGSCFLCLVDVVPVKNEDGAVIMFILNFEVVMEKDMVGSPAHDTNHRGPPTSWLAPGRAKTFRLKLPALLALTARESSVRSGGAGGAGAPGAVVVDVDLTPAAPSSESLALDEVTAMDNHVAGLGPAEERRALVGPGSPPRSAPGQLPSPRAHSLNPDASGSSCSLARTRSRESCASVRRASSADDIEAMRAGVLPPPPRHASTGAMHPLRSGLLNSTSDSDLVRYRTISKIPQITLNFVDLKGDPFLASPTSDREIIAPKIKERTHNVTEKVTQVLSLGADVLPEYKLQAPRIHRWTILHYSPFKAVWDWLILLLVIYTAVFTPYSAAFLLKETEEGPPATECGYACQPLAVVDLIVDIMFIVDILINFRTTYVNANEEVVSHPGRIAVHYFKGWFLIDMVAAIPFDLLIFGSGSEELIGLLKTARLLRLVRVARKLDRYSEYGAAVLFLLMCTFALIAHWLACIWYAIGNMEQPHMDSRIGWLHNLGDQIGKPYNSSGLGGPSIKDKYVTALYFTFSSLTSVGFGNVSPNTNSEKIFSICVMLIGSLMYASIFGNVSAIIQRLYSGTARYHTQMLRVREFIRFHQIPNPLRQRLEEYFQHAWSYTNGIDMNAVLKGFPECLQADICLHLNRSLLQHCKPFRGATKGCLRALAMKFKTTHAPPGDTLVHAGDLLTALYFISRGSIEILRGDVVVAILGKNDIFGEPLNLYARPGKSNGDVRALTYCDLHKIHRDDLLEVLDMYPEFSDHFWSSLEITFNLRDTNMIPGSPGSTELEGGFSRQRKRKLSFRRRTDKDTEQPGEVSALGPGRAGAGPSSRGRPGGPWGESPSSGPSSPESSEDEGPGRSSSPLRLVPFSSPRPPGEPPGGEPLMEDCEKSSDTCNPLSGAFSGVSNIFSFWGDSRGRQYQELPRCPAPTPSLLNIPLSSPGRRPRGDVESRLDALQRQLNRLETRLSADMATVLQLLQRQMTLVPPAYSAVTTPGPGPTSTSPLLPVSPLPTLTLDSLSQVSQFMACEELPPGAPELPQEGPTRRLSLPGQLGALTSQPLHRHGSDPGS

This assay has as its target human ether-à-go-go-related gene (hERG) potassium channel (human, UniProt Q12809). Put plainly: primary screen, population patch clamp on CHO cells stably expressing hERG.
Consider `Cc1csc(NC(=O)CSc2nc(C)nc3c2c(=O)n(C)c(=O)n3C)n1`, for which the “hERG current change (%, negative = inhibition) at 10uM” value is given as -31.3%.

Turning to `CCN(C(=O)Cc1c(C(=O)O)n(CC)c2ccccc12)c1ccccc1C`, the “hERG current change (%, negative = inhibition) at 10uM” value is 23.1%. With `NC(=O)c1sc2nc3c(c(-c4ccco4)c2c1N)CCCC3` the figure was -9.55%; with `CC12CS(=O)(=O)CC1SC(=S)N2c1ccccn1` (stereo not drawn), 5.32%; with `O=C(Nc1cccnc1Cl)c1cc(-c2ccc(F)cc2)on1`, 27.3%. Consider `COC(=O)c1c(NC(=O)CCNCc2ccco2)sc2c1CCC2.O=C(O)C(=O)O`, for which the “hERG current change (%, negative = inhibition) at 10uM” value is -7.76%. For the compound `CC(C)Cc1nnc(NC(=O)C2CSC3(C)CCC(=O)N23)s1` (stereo not drawn), the “hERG current change (%, negative = inhibition) at 10uM” value is reported as -12.4%.

As to `CC(C)c1c(C(=O)N/N=C/c2ccccc2C(=O)O)nnn1-c1nonc1N`, the “hERG current change (%, negative = inhibition) at 10uM” value is listed as 4.51%.

Turning to `O=C(NCc1cccs1)C1CCC(=O)N(Cc2cccc(C(F)(F)F)c2)C1` (stereo not drawn), the “hERG current change (%, negative = inhibition) at 10uM” value is recorded as -27.5%. Then `CC(=O)Oc1ccccc1C(=O)NC(C)CCc1ccccc1` (stereo not drawn), with -33.4%; and `CCOCCCN(C(=O)c1snc(C(N)=O)c1N)C(C(=O)NC1CCCC1)c1ccc(O)c(OC)c1` (stereo not drawn), with 13.5%; and `CCN1CCN(C(=O)c2[nH]c3ccc(OC)cc3c2C)CC1`, with -2.17%.

Take `CCN(CC)CCCNC(=O)CCc1c(C)n(CC)c2cc(-c3ccccc3OC)nn2c1=O`: the “hERG current change (%, negative = inhibition) at 10uM” value is recorded as 28.4%. Then `CC1=[N+]([O-])C(C)(C)C(c2ccc(Br)cc2)=[N+]1[O-]`, with 1.58%; and `C=CCNC(=O)c1c(CSc2ccccc2)noc1C(=O)NCc1ccccc1`, with 8.01%.

Turning to `CC1=NNC(=O)C1CCC(=O)N/N=C\c1ccccc1[N+](=O)[O-]` (stereo not drawn), the “hERG current change (%, negative = inhibition) at 10uM” value is on record as 0.38%. Then `NC(=O)N/N=C/c1ccc(-n2nncc2-c2ccc(Cl)cc2)cc1`, with -17.5%; and `COc1cc(CC(=O)OCC(=O)Nc2cc([N+](=O)[O-])ccc2F)cc(OC)c1OC`, with -38.9%. With `Nc1ncnc2c1nc(N1CCCCC1)n2[C@@H]1O[C@H](CO)[C@@H](O)[C@H]1O` the figure was 19.3%; with `COc1ccc(S(=O)(=O)N2CCC(C(=O)N[C@@H](C)C(=O)NC3CC3)CC2)cc1`, 20.5%; with `CO[C@H]1C=C2CCN(C)[C@H]2C2c3cc4c(cc3C(=O)O[C@@H]21)OCO4.O=[N+]([O-])O` (stereo partly drawn), 14.5%. With `CCOc1ccc(NCc2cccn2-c2nnc(N3CCC(C(=O)NCCCN4CCCCC4CC)CC3)s2)cc1` (stereo not drawn) the figure was -68%. As to `CCCN(CCC)c1nc2ccccc2n2c(C)nnc12`, the “hERG current change (%, negative = inhibition) at 10uM” value is -46.4%.

Consider `CCOc1ccccc1NS(=O)(=O)c1cccc2nsnc12`, for which the “hERG current change (%, negative = inhibition) at 10uM” value was -15.6%. For the compound `Cc1ccc(S(=O)(=O)N2CCN(C(=O)c3c(-c4ccccc4)noc3C)CC2)c(C)c1`, the “hERG current change (%, negative = inhibition) at 10uM” value is -8.61%. Then `Cc1cc(C)c(C#N)c(Nc2ccccc2C)n1`, with 12.4%. With `O=Cc1ccc(C(=O)OCC(=O)N2CCCC2)cc1` the figure was 17.3%; with `CCN(C1CCCCC1)S(=O)(=O)c1ccc(S(=O)(=O)N2CCN(CCC#N)CC2)cc1`, -25.9%. With `COCCCN(Cc1cccs1)S(=O)(=O)c1csc(C(N)=O)c1` the figure was -0.232%.

Regarding `O=C(NCCCN1CCCC1=O)c1ccc(Cl)c(S(=O)(=O)N2CCCCC2)c1`, the “hERG current change (%, negative = inhibition) at 10uM” value is recorded as -24.1%. In the case of `CCc1cc2c(nc1CC)CCN(CC/C(C)=N/O[C@@H](C)c1cc(-c3c(C)cc(C)cc3C)no1)C2`, the “hERG current change (%, negative = inhibition) at 10uM” value is given as -7.78%. For the compound `CC(C)CC(=O)NC(=S)Nc1ccc(NC(=O)c2ccco2)cc1`, the “hERG current change (%, negative = inhibition) at 10uM” value turned out to be 24.5%. For `O=C(CSc1nn(-c2ccccc2)c(=S)s1)Nn1cnnc1`, the “hERG current change (%, negative = inhibition) at 10uM” value came out at 14.8%.

Take `CCCCN(C(=O)CCn1c(=O)oc2ccccc21)c1ccccc1`: the “hERG current change (%, negative = inhibition) at 10uM” value was -17.7%. With `COCCn1ccc2c(OCC(=O)NCCc3ccccc3)cccc2c1=O` the figure was -19.4%. With `Cc1ccc(NC(=O)CCc2ccc(C)o2)cc1`, the “hERG current change (%, negative = inhibition) at 10uM” value is on record as -0.805%. Then `O=C(COc1ccccc1Cl)Nc1cccc(S(=O)(=O)N2CCCC2)c1`, with 2.28%; and `COc1ccc(NC(=S)Nc2cccc(Cl)c2Cl)cc1OC`, with 6.31%; and `O=C(Nc1ncc2c(n1)-c1ccccc1CC2)c1cccs1`, with -25.7%. On to `CC(=O)c1sc(NC(=O)c2ccc(C)cc2)nc1C`, for which the “hERG current change (%, negative = inhibition) at 10uM” value is listed as 7.72%.

In the case of `Cc1ccccc1OCCNCC(C)O.O=C(O)C(=O)O` (stereo not drawn), the “hERG current change (%, negative = inhibition) at 10uM” value is on record as 20.1%.

As to `CC1CCCCC12NC(=O)N(CC(=O)Nc1ccc3[nH]c(=O)[nH]c3c1)C2=O` (stereo not drawn), the “hERG current change (%, negative = inhibition) at 10uM” value turned out to be 7.01%. Then `N#Cc1cc2c(cc1NC(=O)CCn1cnnn1)OCO2`, with 21.4%; and `CCN(Cc1nc2ccccc2c(=O)[nH]1)Cc1nc2cc(OC)c(OC)cc2c(=O)[nH]1`, with 14.9%; and `O=C(Nc1cc([N+](=O)[O-])ccc1N1CCOCC1)c1cccs1`, with 1.15%. For the compound `Nc1nonc1C(=O)N/N=C/c1ccc(Br)o1`, the “hERG current change (%, negative = inhibition) at 10uM” value stood at 4.21%.

In the case of `Cc1cc(Nc2cccc(Cl)c2)n2ncnc2n1`, the “hERG current change (%, negative = inhibition) at 10uM” value is on record as -5.83%. Then `O=c1oc2cc(OCc3ccc(C(F)(F)F)cc3)ccc2cc1-c1ccccn1`, with 10.4%; and `CCOc1ccc(/C=N/NC(=O)CC(=O)Nc2ccc(Cl)c(Cl)c2)cc1`, with 5.01%. Turning to `CCOc1ccccc1NC(=O)c1ccc2c(c1)C(=O)N(CC)C2=O`, the “hERG current change (%, negative = inhibition) at 10uM” value was 5.07%. `C=CCOc1ccc(/C(O)=C2/C(=O)C(=O)N(CCCN3CCOCC3)C2c2ccc(OC)cc2)cc1` (stereo not drawn): the “hERG current change (%, negative = inhibition) at 10uM” value is on record as 4.63%. Then `CC(C)CC(=O)CC1(O)C(=O)Nc2ccccc21` (stereo not drawn), with 23.3%; and `O=C(CN(Cc1ccco1)C(=O)c1cccc(F)c1)Nc1ccccc1C(F)(F)F`, with -7.89%. In the case of `CC(=O)Nc1ccc(S(=O)(=O)Oc2ccc(C(=S)N3CCCCC3)cc2)cc1`, the “hERG current change (%, negative = inhibition) at 10uM” value was -16.6%. With `Cc1nnc(N(Cc2ccco2)C(=O)c2ccc(C#N)cc2)s1` the figure was -18.5%; with `CCOC(=O)c1nnn(-c2nonc2NC(C)=O)c1C`, 4.43%. With `CCOC(=O)c1c(NC(=O)C2c3ccccc3Oc3ccccc32)sc(C(N)=O)c1C`, the “hERG current change (%, negative = inhibition) at 10uM” value is given as 4.61%. Then `COC(=O)n1c(=S)oc2cc(Cl)ccc21`, with 8.11%.

As for `O=C(Nc1nnc(SCC(=O)N2CCCC2)s1)C1CC(=O)N(c2ccccc2)C1` (stereo not drawn), the “hERG current change (%, negative = inhibition) at 10uM” value was 27.2%. With `COc1cccc(NC(=S)NN2C(C)CCCC2C)c1` (stereo not drawn) the figure was 2.98%; with `Cc1nn(CCC(=O)NCCc2ccccc2Cl)c(=O)c2nn(-c3ccccc3)c(C)c12`, 10.8%.

Turning to `COc1ccc(-c2nnc(SCC(=O)c3[nH]c(C)c(C(C)=O)c3C)o2)cc1`, the “hERG current change (%, negative = inhibition) at 10uM” value amounted to 8.59%.

Regarding `Oc1cccc(C(=S)N2CCC(Cc3ccccc3)CC2)c1`, the “hERG current change (%, negative = inhibition) at 10uM” value is reported as 12.6%.

On to `CN(CC(=O)Nc1cccc(F)c1)C(=O)c1cccc(S(=O)(=O)N2CCN(c3ccccc3)CC2)c1`, for which the “hERG current change (%, negative = inhibition) at 10uM” value is -23.4%. For `Cc1cccc(NS(=O)(=O)c2cccc(C(=O)N3CCCCCC3)c2)c1`, the “hERG current change (%, negative = inhibition) at 10uM” value is listed as -3.09%.

With `CC(C)(C)CC(=O)Nc1nnc(-c2cccs2)s1`, the “hERG current change (%, negative = inhibition) at 10uM” value is listed as 7.4%. Then `Cc1cnccc1NC(=O)c1cccs1`, with 11%.

In the case of `COC(=O)c1ccccc1NC(=O)N1CCN(Cc2ccco2)CC1`, the “hERG current change (%, negative = inhibition) at 10uM” value turned out to be 6.81%.

Turning to `O=C(CCc1nnc2ccc(NCc3ccco3)nn12)Nc1ccccc1F`, the “hERG current change (%, negative = inhibition) at 10uM” value is listed as 5.76%. Then `NC(=O)SCC(=O)Nc1ccc(Cl)c(Cl)c1`, with 11.9%; and `Cc1cc(/C=N/Nc2ccc([N+](=O)[O-])cn2)c(C)n1-c1cccc(C(=O)O)c1`, with 23.7%. With `O=C(COc1ccc([N+](=O)[O-])cc1)NNC(=S)NC(=O)c1ccc(Br)cc1` the figure was -16.6%; with `O=C(Cn1nnc(-c2ccccc2)n1)N1CCN(c2ccc(F)cc2)CC1`, -5.24%. Then `COc1ccc(NC(=O)c2n[nH]c(=O)c3ccccc23)cc1S(=O)(=O)N1CCCCC1`, with 2.57%; and `Cc1ccc(Cl)cc1NC(=O)COC(=O)C1CC1`, with -5.31%. For `Cc1cc(C)nc(SCc2nnc(SCC(=O)NCc3ccco3)n2-c2ccccc2)n1`, the “hERG current change (%, negative = inhibition) at 10uM” value was -14.5%. Turning to `CCOc1ccc(NC(=O)CCNC(=O)Cn2cnc3ccccc3c2=O)cc1`, the “hERG current change (%, negative = inhibition) at 10uM” value stood at 19.6%.

With `COc1cccc(C(=O)Nc2ccccc2OC(F)(F)F)c1`, the “hERG current change (%, negative = inhibition) at 10uM” value is 6.11%. In the case of `CC(C)(C)C(=O)NCC12C=CC(O1)C1C(=O)N(c3ccccc3)C(=O)C12` (stereo not drawn), the “hERG current change (%, negative = inhibition) at 10uM” value turned out to be 3.87%. With `COc1ccc(NC(=O)CSc2nnc3ccc(-c4cccnc4)nn23)c(OC)c1` the figure was -12.5%; with `CCOC(=O)c1c(C)[nH]c(C)c1C(=O)CSc1nnc(-c2ccc(OC(F)F)cc2)o1`, 7.68%; with `Cc1ccc(-c2nc(CS(=O)CC(=O)NCc3ccco3)c(C)o2)cc1` (stereo not drawn), 1.07%. With `CCCNC(=O)CN(C)C(=O)c1n[nH]c2ccccc12` the figure was -12.9%.

As to `CN1CCC(N(C)S(=O)(=O)c2ccc(NC(=O)Cc3ccc(F)cc3)cc2)CC1`, the “hERG current change (%, negative = inhibition) at 10uM” value is 2.41%. With `C[C@H]1COC2=C1C(=O)C(=O)c1c2ccc2c1CCCC2(C)C` the figure was 2.83%.

Take `Cc1nnc(SCC(=O)NC2CCCc3ccccc32)n1-c1ccccc1` (stereo not drawn): the “hERG current change (%, negative = inhibition) at 10uM” value was -0.602%.

Regarding `O=C(Cn1nc(C(F)(F)F)c2c1CCCC2)NC1CCCC1`, the “hERG current change (%, negative = inhibition) at 10uM” value is given as -13.2%.
